# According to PubChem BioAssay AID686971 (National Center for Advancing Translational Sciences (NCATS), 2013):
# Out of some 360,000 compounds screened, about 7,500 (2.1%) were called active. The inconclusive results got no clear call from the source; some entries with a clear call stand among them for comparison. Calls follow the shape of the dose curve; as a rule, active = well fitted cell-killing curve with a large enough effect; inconclusive = small, poorly fitted or top-dose-only effect, or effect the other way, or another doubt; inactive = no such curve, though single readings can be large or run the other way. Potencies of inconclusive entries are left out as doubtful fits.
# Assay: qHTS for induction of synthetic lethality in tumor cells producing 2HG: qHTS for the HT-1080-IDH1KD cell line;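 as to activity, negative = toxicity: 0% = DMSO wells and -100% = cell-free medium wells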
# Conditions: HT-1080 IDH1 knockdown viability, ATP luminescence, 48 h; activity, negative = toxicity: at 46.1 µM (top of the series) unless noted
# Procedure, shortened: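 CellTiter-Glo luminescence after 48 h compound exposure at 37 degrees C of IDH1-knockdown HT-1080 cells in 5% FBS RPMI. %Activity scaled between DMSO wells and cell-free media wells, with curves fitted and assigned curve classes.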
# Potency is read from the fitted curve at half-maximal effect; tags tell the direction and shape of the fitted curve.
Compound,Potency,"activity, negative = toxicity"
O=C(NCC1CCCO1)C(c1ccc(F)cc1)N(Cc1ccc(F)cc1)C(=O)Cn1nnc(-c2cccs2)n1 (stereo not given),"inconclusive [cytotoxic, single point]",–
CCOC(=O)C1=C(Cc2ccc(F)cc2)C(=O)c2ccccc2C1=O,active: 10 µM,–
CCOC(=O)c1c(NC(=O)CC2SC(N)=NC2=O)sc(C)c1C (stereo not given),–,inactive: -5.5%
CCn1cc(CN2CCC(n3nccc3NC(=O)c3ccc(OC)cc3)CC2)cn1,–,inactive: 8.93%
Cc1cc(NC(=O)CSc2nnc(CNc3ccc(F)cc3)n2C2CCCCC2)no1,"inconclusive [cytotoxic, single point]",–
CC1CCc2onc(C(=O)NCc3ccco3)c2C1 (stereo not given),active: 13 µM,–
CCOC(=O)CNC(=O)N(CCOC)CC1CCCN(C2Cc3ccccc3C2)C1 (stereo not given),–,inactive: -4.4%
Brc1ccc(CSc2ncnc3nc[nH]c23)cc1,"inconclusive [cytotoxic, partial curve]",–
CCOc1ccc(/C=C/c2nc(C#N)c(NCCCOC)o2)cc1,"inconclusive [cytotoxic, full curve]",–
CC(C)(C)OC(=O)NCCCC[C@H](NC(=O)c1[nH]cnc1C(=O)Nc1ccc(CNC(=O)OC(C)(C)C)cc1)C(=O)OC(C)(C)C,"inconclusive [cytotoxic, single point]",–
CCN1CCN(c2nn3c(=O)c4ccccc4nc3c3ccccc23)CC1,"inconclusive [cytotoxic, single point]",–
CCOC(=O)CC1=CCc2c1ccc(OC)c2OC,"inconclusive [rising, full curve]",–
CSc1nc(N)nc(SCC(=O)Nc2ccc(Cl)cc2)c1C#N,"inconclusive [cytotoxic, single point]",–
Cc1cccc(N2CC(C(=O)Nc3ccc(S(=O)(=O)N4CCCCC4)cc3)CC2=O)c1C (stereo not given),–,inactive: -26.7%
Cc1ccc(C)c(NC(=O)C2(C)CCCN2C(=O)C(C)C)c1 (stereo not given),"inconclusive [rising, single point]",–
Cc1ccc(C(=O)/C=C/c2ccc3c(c2)OCO3)o1,"inconclusive [cytotoxic, single point]",–
Cc1ccc2[nH]c(=O)c(CN(CCc3ccccc3)Cc3nnnn3CC3CCCO3)cc2c1 (stereo not given),–,inactive: -4.56%
COc1cccc(-c2csc(N3CCN(C(=S)NCC(C)C)CC3)n2)c1,–,inactive: -11.3%
O=C(NC(c1ccccc1)c1ccsc1)C1CCN(Cc2ccc(Oc3ccccc3)cc2)CC1 (stereo not given),active: 14.6 µM,–
Cc1ccc(-n2[nH]c(C)c(/C=N/Nc3ccc([N+](=O)[O-])cc3[N+](=O)[O-])c2=O)cc1,active: 23.1 µM,–
O=C(c1ccco1)N1CCCC(c2nc(-c3ccc(S(=O)(=O)NCc4ccccc4)cc3)no2)C1 (stereo not given),"inconclusive [cytotoxic, single point]",–
CCCOc1ccc(CCc2n[nH]c(=S)n2Cc2ccccc2)cc1,"inconclusive [cytotoxic, partial curve]",–
CN(C)CC(=O)c1ccc(-c2ccccc2)cc1,"inconclusive [cytotoxic, single point]",–
Cc1c(CN2CCC(CO)(Cc3ccccc3)CC2)c2ccccc2n1C,"inconclusive [cytotoxic, single point]",–

Compound,Potency,"activity, negative = toxicity"
O=C(NCCNC1CCC(c2ccccc2)CC1)c1ccc(F)cc1 (stereo not given),"inconclusive [cytotoxic, single point]",–
Cc1ccc(CCCNC(=O)C2CCC(=O)N(Cc3cccc(F)c3)C2)cc1 (stereo not given),–,inactive: 8.73%
CCOC(=O)c1sc(N/N=C/c2cc(Br)c(O)c(OC)c2)nc1C,"inconclusive [cytotoxic, partial curve]",–
N#Cc1c(Nc2ccccc2)s[nH]c1=O,–,inactive: -10.7%
COc1ccc(NC2CCCN(C(=O)CSc3ccncc3)C2)cc1 (stereo not given),–,inactive: 6.12%
COc1ccc(C)cc1Nc1n[n+](-c2ccccc2)c(-c2ccc(OC)c(OC)c2OC)s1,"inconclusive [cytotoxic, single point]",–
COC(=O)[C@@]12C[C@@H](CC(=O)NCCCN3CCCC3=O)C(=O)N(CCc3ccc(OC)c(OC)c3)C1=CCC(C)(C)C2,–,inactive: 3.95%
O=C(N/N=C\C=C\c1ccco1)C1COc2ccccc2O1 (stereo not given),"inconclusive [cytotoxic, single point]",–
CC1CCN(CCOCCOc2ccc(Cl)cc2Br)CC1,"inconclusive [cytotoxic, single point]",–
COc1ccccc1NC(=O)c1ccccc1C(=O)O,–,inactive: 8.64%
Cc1[nH]c2ccccc2c1C(=O)C(=O)N1CC=C(c2ccccc2)CC1,active: 20.6 µM,–
Cc1oc2ccc(O)cc2c1C(=O)c1ccc([N+](=O)[O-])cc1,–,inactive: 2.04%
CC1CCN(C(=O)C(C)Sc2nc(-c3ccccc3)cc(C(F)(F)F)n2)CC1 (stereo not given),"inconclusive [cytotoxic, single point]",–
COc1cc2c(cc1OC)CN(c1nc(CN3CCOCC3)nc3sc4c(c13)CCC(C)C4)CC2 (stereo not given),"inconclusive [cytotoxic, single point]",–
CCOC(=O)c1cc2cc(-c3c(C(=O)OCC)oc4cc(O)cc(O)c4c3=O)ccc2o1,"inconclusive [cytotoxic, single point]",–
CC(Oc1ccccc1)C(=O)NNC(=O)c1ccccn1 (stereo not given),"inconclusive [cytotoxic, single point]",–
CC(C)c1ccc(CNC(=O)CSCC(=O)Nc2ccc3ccccc3c2)cc1,"inconclusive [cytotoxic, single point]",–
O=C(Cc1ccc(Br)c2ccccc12)N/N=C/c1ccccn1,"inconclusive [cytotoxic, partial curve]",–
O=C(CCNS(=O)(=O)c1ccccc1)NNC(=O)C1COc2ccccc2O1 (stereo not given),–,inactive: 6.32%
CCCCCCn1ccc(=N)cc1,–,inactive: -15%
COc1cccc(-c2nn(-c3ccc(C)cc3)cc2C(=O)N2CCc3cc(OC)c(OC)cc3C2)c1,active: 20.6 µM,–
Cc1ccc2cc(C(c3nnnn3Cc3ccccc3)N3CCc4ccccc43)c(=O)[nH]c2c1 (stereo not given),"inconclusive [cytotoxic, single point]",–
O=C(COS(=O)c1ccccc1)Nc1cc(Cl)ccc1N1CCOCC1 (stereo not given),–,inactive: 0.882%
CC1=CC(=O)C=CC1=Nc1ccc(N(C)C)cc1,"inconclusive [cytotoxic, single point]",–

Compound,Potency,"activity, negative = toxicity"
CN(c1cccc(NC(=O)Nc2ccc(Cl)cc2)c1)S(C)(=O)=O,"inconclusive [cytotoxic, single point]",–
COc1cccc(C(=O)NCC(=O)N2CCC3(CC2)NCCc2[nH]cnc23)c1OC,–,inactive: -0.631%
C=CCN1C(=O)C(CC(=O)Nc2ccc(OCCC)cc2)N(CCCN2CCN(Cc3ccccc3)CC2)C1=S (stereo not given),active: 16.4 µM,–
O=c1[nH]c(SCc2cccc(Cl)c2)nc2[nH]ncc12,"inconclusive [cytotoxic, single point]",–
Cc1ccccc1NC(=O)N1CCN(C/C=C/c2ccccc2)CC1,–,inactive: -2.82%
O=C(Nc1ccc2c(c1)nc1n2CCN(Cc2ccccc2)C1)NC1CCCCC1,–,inactive: -5.1%
COc1ccc(C(=O)/C=C/Nc2ccccn2)c(OC)c1,"inconclusive [cytotoxic, partial curve, poor fit]",–
CC(C)Oc1cc(NC(=O)CS(=O)CC(=O)Nc2cccc(C(F)(F)F)c2)c(Cl)cc1Cl (stereo not given),"inconclusive [cytotoxic, single point]",–
CCCCc1nc(N2CCOCC2)c(C#N)c2c1COC(C)(C)C2,–,inactive: -4.61%
COc1ccc(C(=O)Cn2c(C(=O)/C=C/c3ccccc3)nc3ccccc32)cc1,–,inconclusive: -34.1% [cytotoxic]
CSc1ccc(/C=N/NC(=O)c2cccc(O)c2)cc1,"inconclusive [cytotoxic, single point]",–
COc1cc(OC)cc(C(=O)NCc2ccc(-n3cccc3)cc2)c1,"inconclusive [cytotoxic, single point]",–
CCc1ccccc1N(CC)C(=O)C1CCN(c2ncnc3c2nc2n3CCCCC2)CC1,"inconclusive [cytotoxic, single point]",–
CCCn1c(SCC(=O)Nc2ccccc2CC)nnc1C(C)C,"inconclusive [cytotoxic, single point]",–
CCOC(=O)C1=C(C)NC(C)=C(C(=O)OCC)C1c1ccc([N+](=O)[O-])s1,"inconclusive [cytotoxic, single point]",–
O=C(O)c1ccc(N=N/C(=N\Nc2ccc(C(=O)O)cc2)c2ccccc2)cc1,"inconclusive [cytotoxic, single point]",–
Cc1ccc(-c2nc(N/N=C/c3cccnc3)c3ccccc3n2)cc1,"inconclusive [cytotoxic, single point]",–
COc1cc(C2c3[nH]c4ccccc4c3C[C@H]3C(=O)N(CCO)CC(=O)N23)cc(OC)c1OC (stereo not given in full),"inconclusive [cytotoxic, single point]",–
CCCCCn1c(=O)[nH]c2cc(C(=O)N3CCN(Cc4ccc5c(c4)OCO5)CC3)ccc2c1=O,"inconclusive [cytotoxic, full curve]",–
CSc1ccccc1NC(=O)C(=O)c1c[nH]c2ccccc12,"inconclusive [cytotoxic, single point]",–
CN(C)S(=O)(=O)c1cccc(NC(=O)c2cc([N+](=O)[O-])ccc2N2CCCCC2)c1,"inconclusive [cytotoxic, single point]",–
c1ccc2c(c1)C(=NC1CCCCC1)NC2=NC1CCCCC1,"inconclusive [cytotoxic, single point]",–
